According to ChEMBL document CHEMBL1201862, “PubChem BioAssay data set” (2004):

What follows are molecules tested on NCI-H322M (assay: inhibition of tumour cell growth, NCI panel, 48 h).

Structure (SMILES) | GI50
COc1ccc(CN2C(=O)CCC/C=C\[C@H]2CI)cc1 | inactive: 13.2 µM
CN(NC(=O)c1cccs1)C1=NCCN1 | inactive: > 100 µM
COc1cc(C2SCC(=O)N2Cc2ccccc2)cc(OC)c1OC (stereo not given) | inactive: > 100 µM
C=C(C)[C@@H]1CC[C@]2(CO)CC[C@]3(C)[C@H](CC[C@@H]4[C@@]5(C)CC[C@H](O)C(C)(C)[C@@H]5CC[C@]43C)[C@@H]12 [BETULIN] | inactive: 3.58 µM
CC1=CCC2CC1C(C(=O)c1c[nH]c3ccccc13)=NC2(C)C (stereo not given) | inactive: > 100 µM
O=C(O)CCc1nc(-c2ccccc2)c(-c2ccccc2)o1 [OXAPROZIN] | inactive: > 100 µM
COc1cccc2c1/c(=C/c1ccc(N(C)C)cc1)c1cc(-c3ccccc3)[n+](C)n12 | active: 0.415 µM
N#C/C(=C1\SC(C(N)=O)=C(N)N1c1ccccc1)c1nc2ccccc2[nH]1 | inactive: > 100 µM
COc1ccc(C(c2cc3c(cc2O)OCO3)N2CCOCC2)cc1OC (stereo not given) | inactive: 17.5 µM
C[N+]1([O-])CCC(O)(C2CC2)CC1 (stereo not given) | inactive: > 100 µM
CN(Cc1cnc2nc(N)nc(N)c2n1)c1ccc(C(=O)NC(CO)CCCO)cc1 (stereo not given) | inactive: > 100 µM
Cc1cc(=O)c2c([nH]1)NS(=O)(=O)NC2=O | inactive: > 100 µM
CCN1CC2(COC)C(O)CC(OC)C34C5CC6(O)C(OC)C=C(C5C6OC(=O)c5ccc(OC)c(OC)c5)C(C(OC)C23)C14 (stereo not given) | inactive: > 7.5 µM
C=CCN(c1cc(OC)c2[nH]c(C(=O)OCC)c(C)c2c1[N+](=O)[O-])S(C)(=O)=O | inactive: 24 µM
CCOc1ccc(N/C(Cl)=C(Cl)\C(=C(\Nc2ccc(OCC)cc2)n2nnc3ccccc32)[N+](=O)[O-])cc1 | inactive: 28.8 µM
C/C=C1\C=C(OC)CN(CCc2c[nH]c3ccccc23)C1 | inactive: 37.1 µM
CCOC(=O)C(NC(=O)CC)(Nc1ccc(F)cc1F)C(F)(F)F (stereo not given) | inactive: > 100 µM
CC(=O)CC(O)(C(F)(F)Cl)C(F)(Cl)Cl (stereo not given) | inactive: > 10 µM

Structure (SMILES) | GI50
COc1ccc(-c2c3c(n(C4OC(COC(C)=O)C(OC(C)=O)C(OC(C)=O)C4OC(C)=O)c(=S)c2C#N)CCC3)cc1 (stereo not given) | inactive: > 100 µM
O=C(OCc1ccccc1CN1CCOCC1)c1cccc(Br)c1 | inactive: 56.2 µM
CC1=Nc2ccccc2NC(c2ccoc2)C1 (stereo not given) | inactive: > 100 µM
CC1=[N+]([O-])C2(CCCC2)N(O)C1(C)C | inactive: > 100 µM
CCC/C(=N/NC(=O)C(N)=O)C(CC)C(=O)CCC(=O)N(Cc1ccccc1)Cc1ccccc1 (stereo not given) | inactive: > 100 µM
CCOC(=O)N/N=C(/N)Cc1ccccc1 | inactive: > 100 µM
CCCCCCCCCCCCCCCCOP(=O)(O)OP(=O)(O)OCC1OC(n2cnc3c(N)ncnc32)C(O)C1O (stereo not given) | inactive: > 100 µM
Cc1cc(C)n(C(=CC(=O)C(Cl)Cl)n2nc(C)cc2C)n1 | inactive: 13.1 µM
N=C(N)Nc1nc2cc([N+](=O)[O-])ccc2[nH]1 | inactive: 73.1 µM
CC[C@@H]1C[C@@H]2CN3CCc4c([nH]c5ccc(OC)cc45)C(COC(=O)c4ccc(OC)c(OC)c4)(C2)C13 | inactive: 35.5 µM
COc1cc(CCCOC(=O)/C=C/c2ccc(O)c(O)c2)cc(O)c1O | inactive: > 100 µM
COC(=O)CCC(=O)CC1CC(=O)C2CCCN12 (stereo not given) | inactive: > 100 µM
O=C1C(Cl)=C(N2CCN(CCOCCO)CC2)C(=O)c2c(O)ccc(O)c21 | inactive: 3.21 µM
O=C(c1ccc([N+](=O)[O-])cc1)C(Br)C(Br)c1ccnc2ccccc12 (stereo not given) | inactive: 14.8 µM
Cc1c(C(=O)C/C(=N\O)C(=O)Nc2cc(Cl)c(Cl)cc2Cl)[n+]([O-])c2ccccc2[n+]1[O-] | inactive: 25.5 µM
O=C1[C@@H]2C(c3ccccc3Br)=NO[C@@H]2C(=O)N1c1ccc(Cc2ccc(N3C(=O)[C@H]4C(c5ccccc5Br)=NO[C@H]4C3=O)cc2)cc1 | inactive: > 100 µM
CCOC(=O)/C=C(/C(=O)OCC)n1cc(C)c(=O)n(Cc2cnnn2CCCCOC(C)=O)c1=O | inactive: > 100 µM

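Growth conditions: 96-well plates. Treatment: test compound, 48 hours, 5 concentrations. Analysis: linear interpolation between bracketing concentrations; unreached endpoints set to highest concentration. GI50 = concentration required for 50% inhibition of growth.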 The source made the active and inactive calls. No stated cut-off is given here; in the data, active = GI50 up to about 1.1 µM and inactive = higher.
